The record followed here is PubChem BioAssay (NCATS).

Each structure is given as a SMILES string. Some of the results follow. Shown are side measurements of this screen, not its main read-out; they come without a call. Compounds called inactive in the main read-out are mostly missing here. Potencies come from curve fits of mixed quality, noted in brackets.
Tags give direction and shape of the fitted curve.

A short description of this test: qHTS Assay for Lipid Storage Modulators (AID 1519). Particulars: Drosophila S3 cells, BODIPY lipid droplet/cell ratio, laser cytometry; measured here: cell number channel AC50; cells loaded with oleic acid. Put shortly:
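Cells seeded at 5,000 per well were treated with compounds over a concentration series and loaded with oleic acid (400 uM, as added). Lipid droplet fluorescence (488 nm excitation, 500-530 nm channel) was read by laser-scanning cytometry and normalized to 20 uM Triacsin C.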
(qHTS replaces the single test concentration by a dilution series.)
One may read the AC50 as the concentration giving half of the maximal activity seen. Turning to `COc1cc2c(C=O)c3c4c(cc(OC)c(OC)c4c2cc1OC)CCN3C`, the AC50 is 0.891 µM [rising, full curve].

Regarding `c1cncc(-c2ccc3ncnc(NCCN4CCOCC4)c3c2)c1`, the AC50 is 0.708 µM [rising, full curve, poor fit].

As for `CCNc1ncc2nc(-c3ccccc3)c(=O)n(Cc3ccc(F)cc3)c2n1`, the AC50 was 0.891 µM [rising, partial curve].

With `O=C(O)c1c2ccccc2cc2ccccc12`, the AC50 is 28.2 µM [rising, partial curve, poor fit].

For the compound `COC(=O)Nc1ccc2[nH]cc(CCNC(C)=O)c2c1`, the AC50 was 5.62 µM [rising, partial curve, poor fit].

Regarding `Cc1nc2cnc(Oc3cccc(Cl)c3)nc2n(CCc2ccccc2)c1=O`, the AC50 is 3.55 µM [rising, partial curve].

Regarding `COc1cc2c(cc1OC)-c1c(OC)c(OC)cc3ccnc(c13)C2=O`, the AC50 was 0.316 µM [rising, full curve, poor fit].

In the case of `CCNc1ncc2nc(CCc3ccccc3)c(=O)n(C)c2n1`, the concentration at half-maximal activity (AC50) is 0.224 µM [rising, full curve, poor fit].

Regarding `COc1ccc(-n2c(=O)c(-c3cccc(F)c3)nc3cncnc32)cc1`, the AC50 was 0.631 µM [rising, full curve].

In the case of `COc1ccc(CNc2ccnc(-c3ccoc3)n2)c(OC)c1`, the AC50 is 6.31 µM [rising, partial curve, poor fit].

In the case of `CC(=O)NCCNc1nc(-c2cccc(NS(C)(=O)=O)c2)nc2ccccc12`, the AC50 is 0.178 µM [rising, full curve, poor fit].

For the compound `COc1cccc2c1C(=O)CC(c1ccccc1)O2` (stereo not given), the AC50 was 14.1 µM [rising, partial curve, poor fit].

Regarding `Cc1ccc(CC(Cc2nc3ccccc3[nH]2)c2nc3ccccc3[nH]2)cc1` (stereo not given), the AC50 is 2.82 µM [rising, full curve].

On to `COc1ccc(Oc2ncc3ncc(=O)n(Cc4ccc(F)cc4)c3n2)cc1`, for which the AC50 is 0.891 µM [rising, full curve].

In the case of `Cc1cnc(CNc2ncnc3ccc(-c4ccc(N(C)C)cc4)cc23)cn1`, the AC50 was 0.794 µM [rising, full curve].

As to `COc1ccc2[nH]cc(CCNc3ncnc4ccc(-c5cccc(C#N)c5)cc34)c2c1`, the AC50 is 0.708 µM [rising, full curve].

Regarding `Cc1cnc(CNc2cc(-c3ccc(N(C)C)cc3)ncn2)cn1`, the AC50 is 0.562 µM [rising, full curve, poor fit].

With `CC(=O)OC1CCC2(C)C(CCC3(C)C2C(=O)C=C2C4CC(C)(C(=O)OCCN5CCCCC5)CCC4(C)CCC23C)C1(C)C` (stereo not given), the AC50 was 14.1 µM [rising, partial curve, poor fit].

As for `COc1ccccc1CNc1cc(-c2ccccc2C(F)(F)F)ncn1`, the AC50 was 31.6 µM [rising, partial curve].

As to `O=C(Oc1ccccc1)N1CCC2(CCCN(c3ncccn3)C2)CC1`, the AC50 was 0.0282 µM [rising, full curve, poor fit].

As for `COc1ccc2[nH]cc(CCNc3ccnc(-c4ccccc4Cl)n3)c2c1`, the AC50 is 0.631 µM [rising, full curve, poor fit].

Consider `COC(=O)CC[C@@H](C)[C@H]1CC[C@H]2[C@@H]3CC[C@@H]4C[C@H](O)CC[C@]4(C)[C@H]3C[C@H](O)[C@]12C`, for which the AC50 is 14.1 µM [rising, partial curve, poor fit].

In the case of `CN1CCN(c2ncnc3ccc(-c4cccc(C#N)c4)cc23)CC1`, the AC50 was 0.891 µM [rising, full curve, poor fit].

Turning to `O=c1c(-c2cccs2)nc2cnc(N3CCNCC3)nc2n1Cc1cccs1`, the AC50 is 39.8 µM [falling, single point].

Regarding `CCNc1ncc2nc(-c3ccc(OC)cc3)c(=O)n(CCc3ccccc3)c2n1`, the AC50 is 0.0891 µM [rising, full curve].

For `Cc1ccccc1-c1cc(N(C)Cc2ccco2)ncn1`, the AC50 was 11.2 µM [rising, partial curve, poor fit].

For `COc1ccc(CNc2nc(-c3cccc(C#N)c3)nc3ccccc23)c(OC)c1`, the AC50 is 0.0398 µM [rising, full curve, poor fit].

`CNC(=O)[C@H]1O[C@H](n2cnc3c(NCc4cccc(I)c4)ncnc32)[C@@H](O)[C@@H]1O`: the AC50 was 15.8 µM [rising, partial curve, poor fit].

Regarding `COc1ccc(-c2coc3ccc(OC4OC(COC(C)=O)C(OC(C)=O)C(OC(C)=O)C4OC(C)=O)cc3c2=O)cc1` (stereo not given), the AC50 is 0.355 µM [rising, full curve, poor fit].

Consider `COc1ncc2nc(-c3ccc(F)cc3)c(=O)n(Cc3cccs3)c2n1`, for which the AC50 is 14.1 µM [rising, partial curve, poor fit].

Turning to `Cc1cccc(CNc2cc(-c3ccc(N(C)C)cc3)ncn2)c1`, the AC50 is 22.4 µM [falling, partial curve].

`CCCCCCCC/C=C\CCCCCCCC(=O)N[C@@H](CO)Cc1ccc(O)cc1`: the AC50 was 39.8 µM [rising, single point].

As to `Cc1cnc(CNc2cc(-c3ccccc3C)ncn2)cn1`, the AC50 is 22.4 µM [rising, partial curve, poor fit].

In the case of `O=c1cnc2cnc(Oc3ccccc3)nc2n1Cc1cccs1`, the AC50 was 11.2 µM [rising, partial curve, poor fit].

Regarding `N#Cc1ccccc1-c1ccc2ncnc(NC3CC3)c2c1`, the AC50 was 1.58 µM [rising, partial curve].

`CN(C)c1ncc2nc(-c3ccc(Cl)cc3)c(=O)n(C)c2n1`: the AC50 was 3.98 µM [rising, full curve, poor fit].

With `COc1cccc(-c2cc(NCc3ccc(OC)cc3OC)ncn2)c1`, the AC50 was 1.58 µM [rising, full curve, poor fit].

Consider `O=c1cc(-c2ccccc2O)oc2c(O)c(O)ccc12`, for which the AC50 was 28.2 µM [rising, partial curve].

In the case of `COc1ccc(CNc2ccnc(-c3cccnc3)n2)c(OC)c1`, the AC50 was 0.282 µM [rising, full curve].

For the compound `N#Cc1cccc(-c2nc(NCc3cccnc3)c3ccccc3n2)c1`, the AC50 is 0.178 µM [rising, full curve].
